# According to the supplement of paper PMC12217912:
# The list shows a part of the results. Sequences were assembled here from the parent chain. Inactive controls read about 0.05.
# B1: TEV protease; numbered along this chain (parent)
# chain: MGESLFKGPRDYNPISSSICHLTNESDGHTTSLYGIGFGPFIITNKHLFRRNNGTLVVQSLHGVFKVKDTTTLQQHLVDGRDMIIIRMPKDFPPFPQKLKFREPQREERICLVTTNFQTKSMSSMVSDTSCTFPSGDGIFWKHWIQTKDGQCGSPLVSTRDGFIVGIHSASNFTNTNNYFTSVPKNFMELLTNQEAQQWVSGWRLNADSVLWGGHKVFMVKPEEPFQPVKEATQL
# Variants of: B1
# Assay: raw area under fraction-flipped curve 0-4 h after induction (AUC4h, not background-subtracted), DNA-recorder readout of cleavage of the substrate (dimensionless); higher = more cleavage of the substrate by the protease variant
# Conditions: temperature: 34 °C; time window: 0-4 h after rhamnose induction
# Description: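 In vivo DNA recorder in E. coli TOP10(DE3) ΔrhaA at 34 °C. Each TEVp single-site mutant (parent TEVp 0) is paired with a single-site variant of the 7-mer TEVs (canonical ENLYFQ|S). The substrate sits between flexible linkers in a Bxb1-sfGFP-TEVs-SsrA fusion, so cleavage stabilises Bxb1 and speeds flipping of a recombination array, read by NGS. The value is the raw area under the fraction-flipped curve over 0-4 h after rhamnose induction (AUC4h), with ≥20 reads per time point. It is not background-subtracted; inactive controls average about 0.047.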
# 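Also: Bxb1 expression induced with 0.2% (w/v) L-rhamnose at OD600 near 0.5, cultures sampled hourly, flipped fraction per protease–substrate barcode pair counted by paired-end Illumina sequencing.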
variant,measurement,value
K7R,area with substrate ENLYFCS,0.0566
same,area with substrate ENLYFIS,0.0663
same,area with substrate ENLYFKS,0.0674
same,area with substrate ENLYFMS,0.0714
same,area with substrate ENLYFPS,0.0649
same,area with substrate ENLYFTS,0.0508
same,area with substrate ENLYFWS,0.0608
G63P,area with substrate ENLYFCS,0.0433
same,area with substrate ENLYFES,0.0447
same,area with substrate ENLYFFS,0.0664
same,area with substrate ENLYFGS,0.0727
same,area with substrate ENLYFIS,0.0482
same,area with substrate ENLYFKS,0.0509
same,area with substrate ENLYFMS,0.049
same,area with substrate ENLYFPS,0.0502
same,area with substrate ENLYFVS,0.0785
same,area with substrate ENLYFWS,0.0441
same,area with substrate ENLYFYS,0.0423
T115I,area with substrate ENLYFCS,0.0552
same,area with substrate ENLYFGS,0.0862
same,area with substrate ENLYFIS,0.0584
same,area with substrate ENLYFKS,0.0557
same,area with substrate ENLYFNS,0.0833
same,area with substrate ENLYFPS,0.0638
same,area with substrate ENLYFTS,0.048
same,area with substrate ENLYFVS,0.0549
same,area with substrate ENLYFWS,0.0564
R87M,area with substrate ENLYFCS,0.038
same,area with substrate ENLYFES,0.0661
same,area with substrate ENLYFFS,0.0736
same,area with substrate ENLYFMS,0.0664
same,area with substrate ENLYFTS,0.0651
F49N,area with substrate ENLYFCS,0.0402
same,area with substrate ENLYFGS,0.0397
same,area with substrate ENLYFHS,0.0551
same,area with substrate ENLYFIS,0.0592
same,area with substrate ENLYFKS,0.0554
same,area with substrate ENLYFLS,0.0565
same,area with substrate ENLYFMS,0.0654
same,area with substrate ENLYFNS,0.0464
same,area with substrate ENLYFRS,0.0538
same,area with substrate ENLYFWS,0.0573
A196C,area with substrate ENLYFCS,0.059
same,area with substrate ENLYFIS,0.0556
L191H,area with substrate ENLYFCS,0.0484
same,area with substrate ENLYFDS,0.0567
same,area with substrate ENLYFES,0.0469
same,area with substrate ENLYFFS,0.0579
same,area with substrate ENLYFGS,0.0628
same,area with substrate ENLYFHS,0.0414
same,area with substrate ENLYFIS,0.0508
same,area with substrate ENLYFKS,0.0477
same,area with substrate ENLYFLS,0.0547
same,area with substrate ENLYFPS,0.0608
same,area with substrate ENLYFRS,0.0527
same,area with substrate ENLYFSS,0.0379
same,area with substrate ENLYFTS,0.057
same,area with substrate ENLYFWS,0.0649
same,area with substrate ENLYFYS,0.0524
E195W,area with substrate ENLYFCS,0.0602
same,area with substrate ENLYFFS,0.0762
same,area with substrate ENLYFGS,0.0544
same,area with substrate ENLYFIS,0.0461
same,area with substrate ENLYFLS,0.0641
same,area with substrate ENLYFPS,0.0559
same,area with substrate ENLYFSS,0.0439
same,area with substrate ENLYFTS,0.0668
same,area with substrate ENLYFYS,0.0553
T181Q,area with substrate ENLYFCS,0.0675
same,area with substrate ENLYFES,0.0766
same,area with substrate ENLYFGS,0.0575
same,area with substrate ENLYFHS,0.0623
same,area with substrate ENLYFIS,0.0523
same,area with substrate ENLYFMS,0.063
same,area with substrate ENLYFNS,0.0695
same,area with substrate ENLYFPS,0.0407
same,area with substrate ENLYFTS,0.056
same,area with substrate ENLYFWS,0.0574
G162T,area with substrate ENLYFCS,0.0379
same,area with substrate ENLYFFS,0.0606
same,area with substrate ENLYFIS,0.0686
same,area with substrate ENLYFKS,0.0462
same,area with substrate ENLYFMS,0.0588
same,area with substrate ENLYFNS,0.056
same,area with substrate ENLYFPS,0.0669
same,area with substrate ENLYFSS,0.0633
same,area with substrate ENLYFTS,0.0635
same,area with substrate ENLYFWS,0.0552
S158T,area with substrate ENLYFCS,0.108
same,area with substrate ENLYFIS,0.0648
same,area with substrate ENLYFSS,0.0574
P9T,area with substrate ENLYFCS,0.0572
same,area with substrate ENLYFDS,0.0589
same,area with substrate ENLYFES,0.0633
same,area with substrate ENLYFPS,0.0822
V113E,area with substrate ENLYFCS,0.0636
same,area with substrate ENLYFDS,0.0682
same,area with substrate ENLYFES,0.0608
same,area with substrate ENLYFFS,0.076
same,area with substrate ENLYFIS,0.053
same,area with substrate ENLYFKS,0.0583
same,area with substrate ENLYFNS,0.0626
same,area with substrate ENLYFPS,0.0518
same,area with substrate ENLYFTS,0.0402
same,area with substrate ENLYFVS,0.0429
same,area with substrate ENLYFYS,0.0603
P14F,area with substrate ENLYFCS,0.0539
same,area with substrate ENLYFDS,0.0686
same,area with substrate ENLYFES,0.0709
same,area with substrate ENLYFFS,0.0671
same,area with substrate ENLYFHS,0.0473
same,area with substrate ENLYFIS,0.0522
same,area with substrate ENLYFKS,0.0553
same,area with substrate ENLYFLS,0.0616
same,area with substrate ENLYFMS,0.0749
same,area with substrate ENLYFNS,0.0601
same,area with substrate ENLYFPS,0.0673
same,area with substrate ENLYFSS,0.0549
same,area with substrate ENLYFTS,0.0594
same,area with substrate ENLYFVS,0.062
same,area with substrate ENLYFYS,0.0485
I84L,area with substrate ENLYFCS,0.0532
same,area with substrate ENLYFDS,0.0394
same,area with substrate ENLYFES,0.0611
same,area with substrate ENLYFFS,0.039
same,area with substrate ENLYFIS,0.0589
same,area with substrate ENLYFMS,0.0425
same,area with substrate ENLYFNS,0.0527
same,area with substrate ENLYFPS,0.0703
same,area with substrate ENLYFRS,0.0495
same,area with substrate ENLYFTS,0.0487
same,area with substrate ENLYFVS,0.04
same,area with substrate ENLYFYS,0.0646
L61I,area with substrate ENLYFCS,0.0581
same,area with substrate ENLYFDS,0.0792
same,area with substrate ENLYFES,0.0663
same,area with substrate ENLYFFS,0.0697
same,area with substrate ENLYFHS,0.0725
same,area with substrate ENLYFIS,0.0536
same,area with substrate ENLYFMS,0.0731
same,area with substrate ENLYFWS,0.0557
P89R,area with substrate ENLYFCS,0.0578
same,area with substrate ENLYFES,0.0435
same,area with substrate ENLYFFS,0.0641
same,area with substrate ENLYFGS,0.0575
same,area with substrate ENLYFHS,0.0608
same,area with substrate ENLYFIS,0.0524
same,area with substrate ENLYFKS,0.0464
same,area with substrate ENLYFMS,0.0639
same,area with substrate ENLYFNS,0.0508
same,area with substrate ENLYFPS,0.0552
same,area with substrate ENLYFRS,0.0595
same,area with substrate ENLYFSS,0.0735
same,area with substrate ENLYFTS,0.0559
same,area with substrate ENLYFVS,0.0459
same,area with substrate ENLYFWS,0.0776
G2P,area with substrate ENLYFCS,0.0762
same,area with substrate ENLYFDS,0.0522
same,area with substrate ENLYFES,0.0715
same,area with substrate ENLYFFS,0.0655
same,area with substrate ENLYFGS,0.0558
same,area with substrate ENLYFIS,0.0491
same,area with substrate ENLYFKS,0.0536
same,area with substrate ENLYFMS,0.0728
same,area with substrate ENLYFNS,0.0697
same,area with substrate ENLYFPS,0.0608
same,area with substrate ENLYFSS,0.0612
same,area with substrate ENLYFTS,0.0405
same,area with substrate ENLYFVS,0.0202
same,area with substrate ENLYFWS,0.0495
same,area with substrate ENLYFYS,0.0539
